Whole data set: some 110,000 compounds, median “z-score” near -0.1, cut for the highest 2% near 2. Some of the results follow. Active and inactive are the calls of the source.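 Rule for the calls: active = z-score in the third read window above 3 or below -3; inactive = the rest.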
target: Metabotropic glutamate receptor 8 (Rattus norvegicus) (UniProt P70579); assay: rat mGluR8 modulators via GIRK flux, primary screen, cell-based, thallium flux, HTS (AID 488969); settings: HEK293 rat mGluR8, GIRK (G protein-gated inwardly rectifying potassium channel) thallium flux, FluoZin2; at 10 µM; stronger effect = higher value; submaximal glutamate (EC20) added with thallium
Chain of UniProt P70579 (P70579 whole entry, looked up): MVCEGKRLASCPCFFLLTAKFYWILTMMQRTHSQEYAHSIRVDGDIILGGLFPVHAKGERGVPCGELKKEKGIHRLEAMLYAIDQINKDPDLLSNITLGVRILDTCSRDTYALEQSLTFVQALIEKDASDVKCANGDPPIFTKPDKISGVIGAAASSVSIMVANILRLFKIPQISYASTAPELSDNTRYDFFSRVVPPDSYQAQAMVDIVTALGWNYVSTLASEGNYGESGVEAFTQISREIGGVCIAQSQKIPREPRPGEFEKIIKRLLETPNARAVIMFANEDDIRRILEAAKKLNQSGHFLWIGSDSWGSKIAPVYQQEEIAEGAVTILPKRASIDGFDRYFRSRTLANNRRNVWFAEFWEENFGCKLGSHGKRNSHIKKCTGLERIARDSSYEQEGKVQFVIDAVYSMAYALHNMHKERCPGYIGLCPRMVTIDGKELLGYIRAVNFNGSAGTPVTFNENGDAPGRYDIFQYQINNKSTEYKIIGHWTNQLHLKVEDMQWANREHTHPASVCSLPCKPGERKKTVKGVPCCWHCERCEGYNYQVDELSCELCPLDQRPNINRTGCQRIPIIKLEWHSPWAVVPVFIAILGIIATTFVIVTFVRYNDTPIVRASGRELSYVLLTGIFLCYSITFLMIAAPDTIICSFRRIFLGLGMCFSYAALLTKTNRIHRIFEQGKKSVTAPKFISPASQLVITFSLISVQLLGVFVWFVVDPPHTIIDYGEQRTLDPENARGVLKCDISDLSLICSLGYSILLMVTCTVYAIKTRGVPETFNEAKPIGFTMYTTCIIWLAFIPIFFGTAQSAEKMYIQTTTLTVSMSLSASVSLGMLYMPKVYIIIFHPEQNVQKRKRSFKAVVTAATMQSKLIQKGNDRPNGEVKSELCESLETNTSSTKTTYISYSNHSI

| Compound | z-score |
| --- | --- |
| Cc1nc2ccc(NC(=O)N3CCSCC3)cc2s1 | -0.354 |
| C#CC(=O)N(c1cccc(OC)c1)C(C(=O)NC1CCCC1)c1cccs1 (centres undefined) | 0.114 |
| CCCCN(CC)CCNC(=O)CN1C(=O)COc2ccc(S(=O)(=O)N3CCCC3)cc21 | -0.08 |
| COC(=O)C1=C(C)Nc2nc(-c3ccccc3)nn2C1c1ccc(C)o1 (centres undefined) | 0.412 |
| O=C(NCCc1ccccc1)C1CCN(S(=O)(=O)c2ccc(-n3cnnn3)cc2)CC1 | -0.101 |
| COc1ccc2[nH]c(=O)c(CNC3CCCCC3)cc2c1 | -0.291 |
| COc1ccc(OC)c(NC(=O)c2cnc3ccccn3c2=O)c1 | -0.233 |
| CCOC(=O)C1=C(C)NC(=O)CC1c1ccccc1 (centres undefined) | 0.409 |
| CCCCn1c(CCC(=O)O)nc2c1c(=O)[nH]c(=O)n2CCC | -0.0706 |
| CCCN(CCC)CCNc1c(NC2CCN(C(=O)OCC)CC2)c(=O)c1=O | 0.463 |
| COc1ccc(NC(=S)N2CCOCC2)c(OC)c1 | 0.197 |
| O=C(Nc1cccnc1)c1ccco1 | -0.28 |
| Cc1ccn2cc(CCNS(=O)(=O)c3ccc(F)c(C(F)(F)F)c3)nc2c1 | 0.0106 |
| CCC(C)(C)NC(=O)C(c1ccc(OC)cc1)N(Cc1ccco1)C(=O)CCC(=O)Nc1cc(C)on1 (centres undefined) | 0.0565 |
| COc1ccc(Nc2nc(C)cc(C)c2C#N)cc1 | 0.405 |
| CC1CC(C)CN(C(=O)c2ccc3c(=O)n(Cc4ccc5c(c4)OCO5)c(=S)[nH]c3c2)C1 (centres undefined) | 0.905 |
| COc1ccccc1-n1cnnc1SCC(=O)Nc1nc(C)c(Cl)cc1Cl | -0.0697 |
| O=C(Nc1ccc(C(F)(F)F)cc1)c1cccnc1N1CCOCC1 | -0.395 |
| O=C(Nc1cccc(F)c1)C1CCN(C(=O)c2ccc(Cl)cc2)CC1 | -0.113 |
| CC1CCc2c(sc3nc(CN4CCOCC4)nc(NS(=O)(=O)c4cccc([N+](=O)[O-])c4)c23)C1 (centres undefined) | -0.0756 |
| COC(=O)CSc1nnc2n(C3CCCCC3)c(=O)c3c4c(sc3n12)CCCC4 | -1.63 |
| COC(=O)c1c(NC(=O)c2cccs2)sc2c1CCCC2 | 0.126 |
| COc1ccc(S(=O)(=O)N(C)C2CCN(C)CC2)cc1 | -1.75 |

| Compound | z-score |
| --- | --- |
| COc1ccccc1NS(=O)(=O)c1cc(C(=O)N2CC(C)CC(C)C2)ccc1C (centres undefined) | -0.222 |
| Cc1ccc(F)cc1NC(=O)CCC(=O)c1cccs1 | 0.13 |
| CCCc1cc(=O)[nH]c(/N=C(\N)Nc2ccccc2)n1 | 0.28 |
| CN1CCN(C2=Cc3cc(Cl)ccc3Sc3cc(F)ccc32)CC1 | 0.634 |
| O=C(c1cccnc1)c1cccnc1 | -0.0723 |
| Cc1c(C(=O)NCc2cccnc2)oc2c1C(=O)CC(C)(C)C2 | 1.2 |
| CC1CCc2nn(CC(=O)NCCCN3CCCCC3)cc2C1 (centres undefined) | 0.564 |
| C/C=C(\C)CN1CCN(c2ccccc2F)CC1 | -0.558 |
| CC(C)COC(=O)NCCCOC(=O)Nc1ccccc1 | -0.19 |
| CCc1cccc2c(C(=O)CCl)c[nH]c12 | 0.343 |
| Cc1nc2c(c(C)c1C#N)C(=O)c1ccccc1-2 | -0.182 |
| CCCCn1c(=O)n(CC(=O)Nc2ccc(OC)c(Cl)c2)c(=O)c2c1nc(CO)n2CCC | -0.391 |
| C/C(=N\NS(=O)(=O)c1ccc(Br)cc1)c1cccs1 | -0.381 |
| N/C(=N\c1nc2ccccc2o1)NC(=O)c1ccc(Cl)cc1 | 0.0444 |
| COc1ccc(N2CCN(C(CNC(=O)c3cccc(Cl)c3)c3cccnc3)CC2)cc1 (centres undefined) | -1.22 |
| Fc1cccc(Oc2nc3ccccc3n3cccc23)c1 | 0.097 |
| Fc1ccccc1OCCSc1nc2ccccc2o1 | -0.0268 |
| O=C(N/N=C\c1ccc(COc2ccc([N+](=O)[O-])cc2)o1)c1cccc(Cl)c1 | 0.0171 |
| O=C(Nc1ccccc1Cl)NC1(C(=O)N2CCCC2)CCCCC1 | -1.16 |
| CC1(C)CC(=O)C2=C(C1)OC(N)=C(C#N)C2C#Cc1ccccc1 (centres undefined) | -1.68 |
| Cn1c(=O)cc(OCCCC(=O)N2CCN(c3ccccn3)CC2)c2ccccc21 | -0.588 |
| COc1cc(Cl)c(S(=O)(=O)N2CC(C)OC(C)C2)cc1Cl (centres undefined) | -0.57 |
| O=C(COC(=O)c1cccnc1Nc1ccccc1F)NCCN1C(=O)CSC1=O | -0.0449 |

| Compound | z-score |
| --- | --- |
| CCC(c1nnnn1C1CCCCC1)N(Cc1ccco1)Cc1cc2ccc(OC)cc2[nH]c1=O (centres undefined) | 0.0417 |
| COc1ccc(CCNC(=O)c2cnccn2)cc1 | -0.26 |
| S=C(c1nc2ccccc2[nH]1)N1CCOCC1 | 0.262 |
| Cc1ccc(CCNC(=O)C2CCN(S(=O)(=O)N3CCCC3)CC2)cc1 | -0.00207 |
| COc1ccccc1CNc1cc(-c2ccccc2)ccc1OC | -0.45 |
| COc1cc(CC(=O)NCc2ccccn2)cc(OC)c1OC | 0.148 |
| Cc1ccc(S(=O)(=O)N(CC(=O)N2CCCCC2)c2cccc(C)c2)cc1 | -0.184 |
| COCCNc1nnc(SCC(=O)c2c[nH]c3ccccc23)s1 | 0.0416 |
| CC(C)C(=O)Nc1cccc(NC(=S)NC(=O)c2ccc([N+](=O)[O-])cc2)c1 | -0.0455 |
| O=c1cc(N2CCCCC2)c(-c2ccccc2)nn1Cc1cccc(Cl)c1 | 0.184 |
| Cc1n[nH]c(C)c1SCC(=O)Nc1ccc(F)cc1 | 0.159 |
| CC(C)CNC(=S)Nc1ccc(F)cc1 | 0.209 |
| CCOC(=O)c1cc2c(=O)[nH]ccc2nc1C | 0.19 |
| CC1=[N+]([O-])C(C)(C)C(c2ccc(Br)cc2)=[N+]1[O-] | -0.24 |
| NNC(=O)c1nnn(-c2nonc2N)c1-c1cccs1 | -0.0988 |
| CN(C)c1ccc(/C=C(/NC(=O)c2ccccc2)C(=O)N/N=C/c2ccc([N+](=O)[O-])c(O)c2)cc1 | -0.0283 |
| CC(=O)NC1=NC(=O)CS1 | 0.048 |
| CCCS(=O)(=O)N1CCCC(C(=O)NCCCN(CC)c2cccc(C)c2)C1 (centres undefined) | -0.0529 |
| O=C(NC1CCCCC1)c1cccc(Cn2cc(Cl)cn2)c1 | -0.355 |
| NC(=O)CSCc1ccc(Br)cc1 | -0.0319 |
| C=CCSc1nnc2c(n1)OC(c1ccccn1)N(C(C)=O)c1ccccc1-2 (centres undefined) | -0.0527 |
| CCCCCCCC(O)CC(CC1CCCCC1)C(=O)NN (centres undefined) | -0.104 |
| Cc1cc(NC(NC(=O)c2ccco2)(C(F)(F)F)C(F)(F)F)no1 | -0.0405 |

| Compound | z-score |
| --- | --- |
| COc1cccc(-n2cnc(=O)c3cccnc32)c1 | -0.177 |
| CCN(CC)C(=O)n1nc(C)c(CN2C(=O)c3ccccc3C2=O)c1C | -0.151 |
| O=S(=O)(c1ccc(F)c(Cl)c1)N1CCCC1 | -0.346 |
| C/C(=N\NC(=O)c1cccnc1)c1c(O)cc(C)oc1=O | -0.172 |
| CCN(CC)S(=O)(=O)c1cc(Br)ccc1OC | -0.0877 |
| Cc1ccc(-c2nc(N/N=C/c3ccncc3)c3ccccc3n2)cc1 | -0.0845 |
| O=S(=O)(NN=C1CCCCCCC1)c1ccc(Br)cc1 | -0.033 |
| Oc1[nH]c2ccccc2c1N=NC(=S)NCCc1ccccc1 | active: 3.06 |
| COc1ccc(C2(C(=O)Nc3ccc(C(=O)O)cc3)CCOCC2)cc1 | -0.492 |
| COC(=O)COc1ccc(S(=O)(=O)NCc2cccnc2)cc1 | 0.415 |
| Cn1c(=O)oc2cc(S(=O)(=O)NC3CCCCCCC3)ccc21 | -0.856 |
| Cc1ccc(C)c2[nH]c(=O)c(CN(Cc3nnnn3C3CCCCC3)CC3CCCO3)cc12 (centres undefined) | 0.487 |
| CCOC(=O)CNC(=O)CSc1nnc(C)c(=O)[nH]1 | -0.0508 |
| CCOC(=O)c1cnc(SCC(=O)c2ccc(Cl)cc2)nc1N | -0.0912 |
| O=C(NCCCN1CCOCC1)C(=O)N/N=C/c1c2ccccc2cc2ccccc12 | -0.528 |
| COC(=O)c1ccc(NC(=O)CSc2nnc(CNc3ccc(OC)cc3)n2C)cc1 | -0.738 |
| O=C(c1ccc(Cl)cc1)c1c[nH]cc1-c1ccccc1 | 0.0819 |
| O=c1c2ccccc2ncn1CCCSc1ccccc1 | -0.415 |
| Cc1cc(=O)[nH]c(Nc2cccc(C(F)(F)F)c2)n1 | 0.0124 |
| CCN1C(=O)C2(SC(NC(C)=O)=NN2C(C)=O)c2cc(C)ccc21 (centres undefined) | -0.0699 |
| COC(=O)c1cc2c(ccn2-c2ccc(F)cc2)n1Cc1ccc(OC)cc1 | -0.808 |
| COc1ccccc1NC(=O)Nc1ccnn1Cc1cccs1 | -0.188 |
| CCCc1nnc(SCC(=O)N2CCCC(C)C2)n1CC1CCCO1 (centres undefined) | -0.134 |

| Compound | z-score |
| --- | --- |
| CCn1c(COc2cccc(OC)c2)nnc1SCC(=O)N1CCOCC1 | -1.38 |
| N#Cc1ccsc1NC(=O)CN1CCN(c2ccc(O)cc2)CC1 | active: -4.15 |
| Cn1c(C(=O)NCCN2CCOCC2)cc2sccc21 | -0.552 |
| CC(C)CC(C(=O)N1CCc2ccccc2C1)N1C(=O)c2ccccc2C1=O (centres undefined) | -0.313 |
| COc1ccc(C(=O)Oc2c(CN3CCOCC3)cc(Cl)c3cccnc23)cc1 | -0.137 |
| CCOC(=O)Cn1nnnc1CN(CCc1ccccc1)Cc1cc2cc(CC)ccc2[nH]c1=O | 0.497 |
| O=S(=O)(CCc1nc2ccccc2s1)c1ccc2ccccc2c1 | -0.2 |
| Nn1c(SCC(=O)N2CCCc3ccccc32)nnc1-c1ccc(Cl)cc1 | -0.232 |
| O=C(Nn1cc(C(=O)N2CCN(c3ccccc3F)CC2)c2ccccc2c1=O)c1cnccn1 | -1.45 |
| COc1ccc(S(=O)(=O)NCCSc2ccc(Cl)cc2)cc1OC | -0.236 |
| Cc1noc(NS(=O)(=O)c2ccc(NC(=O)CSc3nc4ccccc4s3)cc2)c1C | -0.168 |
| CCN1CCN(CCn2c(=S)[nH]c3ccccc3c2=O)CC1 | 0.66 |
| c1ccc(-c2nc(C3CCCCC3)no2)cc1 | -0.12 |
| CCn1c(SCC(=O)Nc2nnc(C)s2)nnc1-c1ccco1 | -0.0211 |
| Cc1ccc(N2NC(C)(c3cccs3)NC2=S)cc1 (centres undefined) | -0.076 |
| COc1cc(S(=O)(=O)NCCCN2CCOCC2)ccc1Cl | 0.102 |
| Cc1sc2ncnc(Nc3ccccc3)c2c1C | -0.0786 |
| O=c1[nH]nc(Cc2ccc(-c3ccccc3Cl)o2)c2ccccc12 | 0.00944 |
| CC1(C)N=C(SCC(=O)Nc2ccccc2)C(c2ccc(Cl)cc2)=N1 | 0.527 |
| CC(C)C12CN3CCN(CC(C3)/C1=N\NC(=O)Nc1ccccc1)C2 | -0.315 |
| CCOC(=O)N1CCN(c2cc(N3CCN(CC)CC3)c(F)cc2[N+](=O)[O-])CC1C (centres undefined) | 0.0139 |
| Cn1c(CCCOc2ccc(Cl)cc2Cl)nnc1SCC(=O)Nc1ccc(F)c(Cl)c1 | -0.0175 |
